Among all 280,000 compounds or so, about 1,100 (0.39%) were called active. Inconclusive results, whose numbers are uncertain, are shown with a selection of clear calls. Calls come from the whole dose curve; as a rule, active = well fitted inhibition curve with a large enough effect; inconclusive = small, poorly fitted or top-dose-only effect, or effect the other way; inactive = flat fitted curve, though single readings scatter. Potencies beside an inconclusive call are fits to weak or partial responses and may not hold up.
These molecules were tested against Microtubule-associated protein tau (Homo sapiens) (UniProt P10636) (assay: qHTS for Inhibitors of Tau Fibril Formation, Fluorescence Polarization). Settings: K18 P301L tau heparin fibrillization, Alexa594 FP, 6 h; series mostly up to 57.7 µM.
In short: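 Compound effects on tau fibrillization are measured by Alexa 594 fluorescence polarization (ex 555, em 632 nm). K18 P301L tau is used at 15 uM with 0.24 uM labeled tracer, and 20 uM heparin induces aggregation over 6 hr at 37 C.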
Note: nearly all actives have a fitted effect of over 55% in size.
Potency is the fitted concentration of half-maximal effect; tags give direction and shape of the fitted curve.

Sequence of UniProt P10636 (P10636 whole entry, looked up): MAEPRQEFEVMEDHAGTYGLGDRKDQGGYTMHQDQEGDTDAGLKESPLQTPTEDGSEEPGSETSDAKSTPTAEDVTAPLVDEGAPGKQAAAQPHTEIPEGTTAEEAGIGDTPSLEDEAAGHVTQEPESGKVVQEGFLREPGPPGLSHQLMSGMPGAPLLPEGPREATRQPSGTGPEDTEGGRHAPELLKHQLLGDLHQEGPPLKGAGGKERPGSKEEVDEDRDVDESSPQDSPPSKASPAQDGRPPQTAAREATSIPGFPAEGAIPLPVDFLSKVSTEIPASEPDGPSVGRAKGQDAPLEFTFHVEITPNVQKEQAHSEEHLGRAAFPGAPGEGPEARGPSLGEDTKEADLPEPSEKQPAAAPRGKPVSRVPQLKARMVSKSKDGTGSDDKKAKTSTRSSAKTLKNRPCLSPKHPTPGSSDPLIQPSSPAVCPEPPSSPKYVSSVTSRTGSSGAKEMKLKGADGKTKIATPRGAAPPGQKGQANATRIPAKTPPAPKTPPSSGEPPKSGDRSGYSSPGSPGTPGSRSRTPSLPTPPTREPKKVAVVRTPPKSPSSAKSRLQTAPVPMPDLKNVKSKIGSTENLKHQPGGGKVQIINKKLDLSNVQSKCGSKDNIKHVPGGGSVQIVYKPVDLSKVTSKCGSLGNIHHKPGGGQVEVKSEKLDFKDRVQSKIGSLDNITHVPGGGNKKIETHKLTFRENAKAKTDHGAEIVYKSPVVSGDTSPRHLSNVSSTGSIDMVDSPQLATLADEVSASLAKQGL

Potency, inconclusive:
COc1ccc(C(=O)Nc2cc(C)nn2-c2nc3ccccc3[nH]2)c(OC)c1 14.1 µM [inhibitor, partial curve], CCOC(=O)c1ccc(N2C(=O)c3n[nH]c(-c4ccco4)c3C2c2ccc(O)cc2)cc1 (stereo not drawn) 17.8 µM [inhibitor, partial curve, poor fit], COc1ccc(-c2cc(C(=O)NNC(=S)NC(=O)c3c(-c4ccccc4)noc3C)[nH]n2)cc1 2.24 µM [activator, full curve], O=C(NNC(=O)c1cc(-c2ccc(Cl)cc2Cl)nc2ccccc12)Nc1ccccc1 25.1 µM [inhibitor, partial curve], CCN1C(=C(C#N)C#N)C=Cc2ccccc21 5.62 µM [inhibitor, full curve, poor fit], COc1cc(/C=N/Nc2cccc(C)c2)ccc1OC(=O)c1ccco1 1.26 µM [activator, full curve, poor fit], Cc1cc(/C=C2/NC(=O)NC2=O)c(C)n1C 15.8 µM [inhibitor, partial curve], O=C(Nc1ccc(Cl)cc1)N1CCC(c2nc(-c3ccc(F)cc3)no2)CC1 39.8 µM [inhibitor, single point], COC(=O)CS(=O)(=O)c1ccsc1C(=O)Nc1ccc(F)c(F)c1 3.55 µM [inhibitor, full curve], COc1ccc(C2=C(C)C(=NCCCN3CCN(c4cc(C)ccc4C)CC3)NS2(=O)=O)cc1 22.4 µM [inhibitor, single point], Cc1ccc(C)c(NC(=O)Cn2cc(C(=O)c3ccco3)c3ccccc32)c1 15.8 µM [inhibitor, partial curve, poor fit], CCc1c(C)sc(NC(=O)c2cc(-c3cccc(Cl)c3)on2)c1C#N 25.1 µM [inhibitor, single point], Cn1c(Cl)c(/C=N/OC(=O)c2ccccc2Cl)c2ccccc21 22.4 µM [inhibitor, single point], Clc1ccc(-c2cc3ccccc3nc2N2CCCC2)cc1 8.91 µM [inhibitor, single point], O=C(Nc1ccc(C(=O)Nc2ccc(C(=O)Nc3ccc(S(=O)(=O)O)c4cc(S(=O)(=O)O)cc(S(=O)(=O)O)c34)cc2)cc1)Nc1ccc(C(=O)Nc2ccc(C(=O)Nc3ccc(S(=O)(=O)O)c4cc(S(=O)(=O)O)cc(S(=O)(=O)O)c34)cc2)cc1 39.8 µM [inhibitor, single point], Cc1ccc(-c2nc(SCC(=O)N(C)C3CCS(=O)(=O)C3)[nH]c2-c2ccc(C)cc2)cc1 (stereo not drawn) 28.2 µM [activator, single point], CN(C)CCNC(=O)Cn1c(=O)c2cccn2c2ccc(F)cc21 22.4 µM [inhibitor, partial curve], O=C(NC(NC(=S)Nc1c(Cl)cc(Cl)cc1Cl)C(Cl)(Cl)Cl)OCc1ccccc1 (stereo not drawn) 2 µM [inhibitor, full curve], NC(=O)c1nn(-c2ccccc2)nc1NC(=O)CSc1nnnn1-c1ccc(Cl)cc1 11.2 µM [inhibitor, partial curve], CC(OC(=O)c1cc(S(=O)(=O)Nc2ccc(F)cc2)ccc1Cl)C(=O)Nc1ccc2c(c1)OCCO2 (stereo not drawn) 3.16 µM [inhibitor, full curve], Cc1ccc(NC(=O)CCS(=O)(=O)c2cccc3nonc23)cc1Cl 28.2 µM [inhibitor, single point], Cc1n[nH]c(C)c1S(=O)(=O)N(CC(=O)Nc1ccc(C(F)(F)F)cc1)c1ccc(C(C)C)cc1 17.8 µM [inhibitor, partial curve], N#CC(C#N)=C1C=CC=CN1/C(=C\c1ccccc1Cl)C(=O)c1ccccc1 39.8 µM [inhibitor, single point], COC(=O)c1ccc(NC(=S)NC2CCc3ccccc32)cc1 (stereo not drawn) 12.6 µM [inhibitor, partial curve], N#C/C(C(N)=O)=c1/ccc2c(c1)N1C3=C(CCCC3)CC3CCCCC31N=2 (stereo not drawn) 28.2 µM [inhibitor, partial curve], O=C(NCCc1c[nH]c2ccccc12)C(=O)NCC(c1cccnc1)N1CCN(c2ccccc2)CC1 (stereo not drawn) 1 µM [activator, partial curve], c1ccc(-c2nc(NCC3CCCO3)c3oc4ccccc4c3n2)cc1 (stereo not drawn) 35.5 µM [inhibitor, single point], COc1ccccc1NCC(O)COc1ccc(C(C)(C)C)cc1 (stereo not drawn) 15.8 µM [activator, partial curve, poor fit], COc1cccc(/C=C/c2nc(C#N)c(NCCc3ccc(OC)c(OC)c3)o2)c1 3.55 µM [activator, full curve], CCOc1ccc(-n2c(C)c(C(=O)OC)c3cc(O)ccc32)cc1 44.7 µM [inhibitor, single point], c1cc2cn[nH]c2cc1NC1CCCCCC1 12.6 µM [inhibitor, partial curve], COc1ccc(-c2cc(C(F)(F)F)nc(SCCC(=O)Nc3cc(C)ccc3O)n2)cc1 31.6 µM [inhibitor, single point], Cc1cccc(NC(=O)C2CCCN(S(=O)(=O)c3c(C)nn(C)c3C)C2)n1 (stereo not drawn) 2.82 µM [inhibitor, partial curve, poor fit], COc1ccc(CNC(=O)c2cc3cc4cc(OC)ccc4nc3o2)cc1 1.58 µM [inhibitor, full curve, poor fit], COc1cccc(CNC(=O)c2ccc3c(c2)c(C)c(C)n3Cc2ccccc2)c1 0.355 µM [activator, partial curve, poor fit], COc1ccccc1-n1c(SCC(=O)c2ccc(O)cc2O)nc2cc([N+](=O)[O-])ccc21 14.1 µM [inhibitor, partial curve], CC(=O)c1ccc(NC(=O)COC(=O)c2ccccc2Nc2ccccc2)cc1 14.1 µM [inhibitor, partial curve], COc1ccc(Nc2ncnc3sc(-c4ccccc4)cc23)cc1 0.316 µM [activator, partial curve], COc1cccc(C2C(C(=O)Nc3ccc(C)cc3C)=C(C)Nc3c(C(=O)Nc4ccccc4)cnn32)c1 (stereo not drawn) 44.7 µM [inhibitor, single point], C1CCN(Cc2nnnn2C2CCCC2)CC1 3.16 µM [inhibitor, single point], COc1ccc(C2=NN(C(C#N)c3ccc(OC)c(OC)c3)C(c3ccccc3)C2)cc1 (stereo not drawn) 5.62 µM [inhibitor, full curve, poor fit], COc1ccc(S(=O)(=O)N2CCC(C(=O)Nc3ccc(Oc4ccccc4)cc3)CC2)cc1 6.31 µM [inhibitor, partial curve], COc1cc(/C=C2/SC(=S)N(CC(=O)Nc3cccnc3)C2=O)cc(OC)c1OC 44.7 µM [inhibitor, single point], OCCN1CCN(C(c2cccs2)c2ccc3cccnc3c2O)CC1 (stereo not drawn) 39.8 µM [inhibitor, single point], CCOc1ccc2[nH]c(=O)c(C(c3nnnn3Cc3ccco3)N3CCN(C)CC3)cc2c1 (stereo not drawn) 0.0708 µM [inhibitor, full curve]

Potency, inactive:
CCCn1cc(S(=O)(=O)c2ccccc2)c(=O)c2cc(F)c(N3CCCC(C)C3)cc21 (stereo not drawn), CC(C)C(=O)c1cn(CC(=O)NCc2ccc3c(c2)OCO3)c2ccccc12, COc1ccc(S(=O)(=O)N[C@H](C(=O)O)C(C)C)cc1, COc1c(O)c2c(=O)cc(OC)c3c4c(OC)cc(=O)c5c(O)c(OC)c(C[C@@H](C)OC(=O)c6ccccc6)c(c(c1C[C@@H](C)OC(=O)Oc1ccc(O)cc1)c23)c54, Oc1cc2c(c(Cl)c1O)CCNC[C@H]2c1ccccc1, O=C(CC(=O)c1cc(Cl)ccc1O)c1ccccc1, N#Cc1c(-c2cccc(F)c2)cc(-c2ccccc2)nc1Br, CC1CCCCN1S(=O)(=O)c1ccc(C(=O)Nc2sc3c(c2C(N)=O)CC(C)(C)NC3(C)C)cc1 (stereo not drawn), CCC(CC)C(=O)NCCc1cc2ccc(OC)cc2[nH]c1=O, CCc1ccc(-c2[nH]c3c(c2-c2sc(C)c(C(=O)OC)c2O)c(=O)[nH]c(=O)n3C)cc1, Cc1cnnn1-c1cccc([N+](=O)[O-])c1, O=C(Nc1nnc(-c2ccccc2)o1)c1ccc(Cl)cc1, COc1cc(Cl)c(C)cc1NC(=O)C1CCN(c2nc3ccccc3n3cccc23)CC1, O=C(O)c1ccc(-c2nc(-c3ccc(Cl)cc3Cl)cs2)cc1, CCc1ccc(NC(=O)CSc2nc(=O)n(Cc3ccccn3)c3c2CCC3)cc1, CCOC(=O)C1CCCN(Cc2ccc3c(c2)OCO3)C1 (stereo not drawn), Cc1ccccc1C(=O)Nc1cccc(-c2ccc3nncn3n2)c1, O=C(NCc1ccccc1)c1ccc(CNS(=O)(=O)c2ccc(Br)cc2)cc1
